Source: PubChem BioAssay AID686970 (National Center for Advancing Translational Sciences (NCATS), 2013)
Out of some 360,000 compounds screened, about 6,000 (1.7%) were called active. This list was built around the results that the source calls inconclusive (neither active nor inactive); the mix of calls is not that of the screen. The call rests on the fitted dose curve; in most records, active means well fitted cell-killing curve with a large enough effect; inconclusive means small, poorly fitted or top-dose-only effect, or effect the other way; inactive means flat fitted curve, though single readings scatter. Potencies of inconclusive entries are left out as doubtful fits.

test: qHTS for induction of synthetic lethality in tumor cells producing 2HG: qHTS for the HT-1080-NT fibrosarcoma cell line; details: HT-1080-NT fibrosarcoma viability, CellTiter-Glo ATP luminescence, 48 h; activity, negative = less viability: at 46.1 µM (top of the series) unless noted;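 further: NT is the 2HG producing partner of a matched IDH1 knockdown line; nearly all actives have a fitted effect of over 55% in size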;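 on activity, negative = less viability: 0% = DMSO-treated cells and -100% = media-only wells without cells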
Method in brief: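 Compounds were tested in concentration-response format on HT-1080-NT cells for 48 hours at 37 degrees C. Cell viability came from CellTiter-Glo luminescence; curves were classified by r2, response magnitude and activity.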
Potency means the concentration at half of the fitted maximal effect; tags describe the fitted curve by direction and shape.

Question: With `C=Cc1cc2c(cc1O)CCC1C2CCC2(C)C(O)CCC12` (centres undefined) as the compound, how does the Potency read?
Answer: The Potency was inconclusive [cytotoxic, single point].

Question: Which Potency does the source give for `C[C@H]1CN([C@@H](C)CO)C(=O)CCCn2cc(nn2)CO[C@@H]1CN(C)C(=O)NC1CCCCC1` here?
Answer: The Potency was “inactive”.

Question: Which Potency does the source give for `O=[N+]([O-])c1cc(/C=N/N/C(=N/c2ccccn2)c2ccccn2)ccc1O` here?
Answer: Its Potency is inconclusive [cytotoxic, single point].

Question: For `COc1ccccc1OCc1nc2ccccc2s1`, which Potency is on record?
Answer: The Potency was inconclusive [cytotoxic, single point].

Question: With `CCc1ccc2oc(-c3ccc(NC(C)=O)cc3)nc2c1` as the compound, how does the Potency read?
Answer: The Potency was “inactive”.

Question: With `Cn1c(NCCc2ccncc2)nc2cc(-c3ccsc3)sc2c1=O` as the compound, how does the Potency read?
Answer: Its Potency is inconclusive [cytotoxic, single point].

Question: Which Potency does the source give for `CCOc1cc(/C=C2\C(=O)N(c3nc(-c4ccc(Br)cc4)cs3)N=C2c2ccccc2)ccc1O` here?
Answer: Its Potency is inconclusive [cytotoxic, single point].

Question: Which Potency does the source give for `CCOc1ccc(NS(=O)(=O)c2cnc(Cl)c(Cl)c2)cc1` here?
Answer: Its Potency is inconclusive [cytotoxic, single point].

Question: Which Potency does the source give for `Cc1cccc(C)c1NC(=O)C1c2ccccc2OCC(=O)N1Cc1ccccc1` (centres undefined) here?
Answer: The Potency was “inactive”.

Question: Which Potency does the source give for `O=C(CCl)Nc1cccc(Oc2ccccc2)c1` here?
Answer: The Potency was inconclusive [cytotoxic, single point].

Question: With `CCn1nnc(-c2ccccc2NS(=O)(=O)c2ccc(C(=O)OC)cc2)n1` as the compound, how does the Potency read?
Answer: The Potency was inconclusive [cytotoxic, single point].

Question: For `COc1ccc(-n2cc(-c3ccccc3)c3c(N4CCOCC4)ncnc32)cc1`, which Potency is on record?
Answer: The Potency was inconclusive [cytotoxic, partial curve].

Question: With `CC[N+](CC)(CC)CCOc1ccc(/C=C/c2ccccc2)cc1` as the compound, how does the Potency read?
Answer: The Potency was inconclusive [cytotoxic, partial curve].

Question: With `Cc1cccc(C)c1OCC(O)CN(Cc1ccccc1O)C1CCCCC1` (centres undefined) as the compound, how does the Potency read?
Answer: Its Potency is active: 9.2 µM.

Question: With `COc1ccc(CN2CC(=O)N(c3ccccc3OC)C2=S)cc1OC` as the compound, how does the Potency read?
Answer: Its Potency is “inactive”.

Question: For `CCN(CC)CCCNC(=O)c1cc(Nc2ccc(OC)cc2OC)nc2ccccc12`, which Potency is on record?
Answer: Its Potency is “inactive”.

Question: Which Potency does the source give for `CC(/C=N/Nc1nc2ccccc2[nH]1)=C\c1ccccc1` here?
Answer: Its Potency is inconclusive [cytotoxic, single point].

Question: For `CCOc1ccc(CNC(=O)c2cccc(NC(=O)C3=C(C)OCCS3)c2)cc1`, which Potency is on record?
Answer: The Potency was “inactive”.

Question: With `O=C(CNC(=O)c1ccccc1O)N/N=C/c1cc(Br)ccc1OC(=O)/C=C/c1ccco1` as the compound, how does the Potency read?
Answer: The Potency was inconclusive [cytotoxic, partial curve].

Question: For `Cc1ccc(C(=O)C2CCN(CC(=O)Nc3ccc(N(C)C)cc3)CC2)cc1`, which Potency is on record?
Answer: Its Potency is “inactive”.

Question: For `CCCCn1c(-c2ccc(F)c(F)c2)nc2cc3[nH]c(=O)c(C(C)C)nc3cc21`, which Potency is on record?
Answer: Its Potency is inconclusive [cytotoxic, partial curve].

Question: With `CCCCn1nnnc1C(c1cc2ccccc2o1)N1CCN(CCN(C)C)CC1` (centres undefined) as the compound, how does the Potency read?
Answer: The Potency was inconclusive [cytotoxic, single point].

Question: With `S=c1nc(-c2cc(Cl)ccc2Cl)[nH][nH]1` as the compound, how does the Potency read?
Answer: The Potency was “inactive”.

Question: Which Potency does the source give for `COc1cc(N=Nc2cccc(S(N)(=O)=O)c2)c2ccccc2c1N` here?
Answer: The Potency was active: 20.6 µM.

Question: With `Cc1ccc(C(=O)Nc2ccccc2N2CCOCC2)cc1S(=O)(=O)N1CCOCC1` as the compound, how does the activity, negative = less viability read?
Answer: The activity, negative = less viability was inactive: 8.79% [at 9.24 µM].

Question: For `NC(=O)C1CCN(C(=O)COc2ccc3ccc(=O)oc3c2)CC1`, which Potency is on record?
Answer: The Potency was “inactive”.

Question: With `Cc1noc(C)c1NC(=O)Nc1ccc2c(c1)C(=O)N([C@H](C)CO)C[C@@H](C)[C@@H](CN(C)S(=O)(=O)c1cn(C)cn1)OCCCC[C@H](C)O2` as the compound, how does the Potency read?
Answer: The Potency was “inactive”.

Question: For `CC1(C)CC(N=Cc2c(O)n(Cc3ccc4c(c3)OCO4)c(=O)c3ccccc23)CC(C)(C)N1`, which Potency is on record?
Answer: Its Potency is active: 18.4 µM.

Question: Which Potency does the source give for `Clc1ccc2[nH]c3c(NCCCN4CCOCC4)ncnc3c2c1` here?
Answer: The Potency was inconclusive [cytotoxic, single point].

Question: Which Potency does the source give for `COc1ccc(CC(N)c2csc(NC(=O)NCCc3ccc(OC)c(OC)c3)n2)cc1` (centres undefined) here?
Answer: Its Potency is inconclusive [cytotoxic, single point].

Question: For `CCCn1c2ccccc2c2cnn(CC(=O)NCCCN3CCN(c4ccccc4)CC3)c(=O)c21`, which Potency is on record?
Answer: Its Potency is active: 18.4 µM.

Question: Which Potency does the source give for `CCn1c(=N)n(CC(O)COc2ccc(C)cc2)c2ccccc21` (centres undefined) here?
Answer: Its Potency is inconclusive [cytotoxic, partial curve].

Question: For `O=C(NC(=S)Nc1ccc(N2CCCCC2)cc1)c1cccs1`, which Potency is on record?
Answer: The Potency was active: 1.26 µM.

Question: For `O=C(NC1CCCCC1)C(c1ccc2ncccc2c1)N(Cc1ccccc1)C(=O)c1cccs1` (centres undefined), which Potency is on record?
Answer: Its Potency is inconclusive [cytotoxic, single point].

Question: For `O=C(Nc1cccc(NC(=O)c2ccc(Br)cc2)c1)c1ccccc1`, which Potency is on record?
Answer: The Potency was inconclusive [cytotoxic, single point].

Question: For `O=C(C[C@H]1C[C@H](C(=O)N2CCOCC2)[C@@]2(CCC3CCCC3)c3[nH]c4ccc(Cl)cc4c3CCN2C1=O)NCCCn1ccnc1`, which Potency is on record?
Answer: The Potency was inconclusive [cytotoxic, single point].

Question: For `Cc1cccc(N2CCN(C(=O)Cc3ccc(Br)cc3)CC2)c1C`, which Potency is on record?
Answer: Its Potency is inconclusive [cytotoxic, single point].

Question: With `Nc1nc(NC(=O)c2cccc(S(=O)(=O)N3CCCCCC3)c2)nc(-c2ccccc2)n1` as the compound, how does the Potency read?
Answer: Its Potency is inconclusive [cytotoxic, partial curve].

Question: For `COc1ccc(-c2cc(C(F)(F)F)nc(N3CCN(C)CC3)n2)cc1OC`, which Potency is on record?
Answer: The Potency was inconclusive [cytotoxic, single point].

Question: Which Potency does the source give for `CCN(CC)CCCNC(=S)N(CCO)Cc1cc2cc3c(cc2[nH]c1=O)OCCO3` here?
Answer: Its Potency is “inactive”.

Question: For `O=C(Nc1nnc(-c2cccs2)o1)c1cccc(C(F)(F)F)c1`, which Potency is on record?
Answer: Its Potency is inconclusive [cytotoxic, single point].

Question: With `CC(C)(C)c1nnc(N/N=C/c2ccccc2O)n(N)c1=O` as the compound, how does the Potency read?
Answer: The Potency was inconclusive [cytotoxic, full curve].

Question: Which Potency does the source give for `COc1cc(C(=O)NC2CCN(C)CC2)ccc1Nc1ncc2c(n1)N(C1CCCC1)CCC(=O)N2C(C)C` here?
Answer: The Potency was inconclusive [cytotoxic, single point].

Question: With `COC(=O)CN1C(=O)C(O)(CC(=O)c2ccc(Cl)cc2)c2ccccc21` (centres undefined) as the compound, how does the Potency read?
Answer: Its Potency is inconclusive [cytotoxic, single point].
